{
  "source": "paper PMC4336329",
  "about": "(PLoS ONE, 2015)",
  "note": "In all, about 310,000 compounds went through this assay and about 14,000 (4.5%) showed an effect of 50% or more. The effect is printed as a negative number. This is one part of the list.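 Further: peak tail current of the secondary pulse compared with the same well before compound.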",
  "data": [
    {"target": "human ether-à-go-go-related gene (hERG) potassium channel (human, UniProt Q12809)", "sequence (Q12809 whole entry, looked up)": "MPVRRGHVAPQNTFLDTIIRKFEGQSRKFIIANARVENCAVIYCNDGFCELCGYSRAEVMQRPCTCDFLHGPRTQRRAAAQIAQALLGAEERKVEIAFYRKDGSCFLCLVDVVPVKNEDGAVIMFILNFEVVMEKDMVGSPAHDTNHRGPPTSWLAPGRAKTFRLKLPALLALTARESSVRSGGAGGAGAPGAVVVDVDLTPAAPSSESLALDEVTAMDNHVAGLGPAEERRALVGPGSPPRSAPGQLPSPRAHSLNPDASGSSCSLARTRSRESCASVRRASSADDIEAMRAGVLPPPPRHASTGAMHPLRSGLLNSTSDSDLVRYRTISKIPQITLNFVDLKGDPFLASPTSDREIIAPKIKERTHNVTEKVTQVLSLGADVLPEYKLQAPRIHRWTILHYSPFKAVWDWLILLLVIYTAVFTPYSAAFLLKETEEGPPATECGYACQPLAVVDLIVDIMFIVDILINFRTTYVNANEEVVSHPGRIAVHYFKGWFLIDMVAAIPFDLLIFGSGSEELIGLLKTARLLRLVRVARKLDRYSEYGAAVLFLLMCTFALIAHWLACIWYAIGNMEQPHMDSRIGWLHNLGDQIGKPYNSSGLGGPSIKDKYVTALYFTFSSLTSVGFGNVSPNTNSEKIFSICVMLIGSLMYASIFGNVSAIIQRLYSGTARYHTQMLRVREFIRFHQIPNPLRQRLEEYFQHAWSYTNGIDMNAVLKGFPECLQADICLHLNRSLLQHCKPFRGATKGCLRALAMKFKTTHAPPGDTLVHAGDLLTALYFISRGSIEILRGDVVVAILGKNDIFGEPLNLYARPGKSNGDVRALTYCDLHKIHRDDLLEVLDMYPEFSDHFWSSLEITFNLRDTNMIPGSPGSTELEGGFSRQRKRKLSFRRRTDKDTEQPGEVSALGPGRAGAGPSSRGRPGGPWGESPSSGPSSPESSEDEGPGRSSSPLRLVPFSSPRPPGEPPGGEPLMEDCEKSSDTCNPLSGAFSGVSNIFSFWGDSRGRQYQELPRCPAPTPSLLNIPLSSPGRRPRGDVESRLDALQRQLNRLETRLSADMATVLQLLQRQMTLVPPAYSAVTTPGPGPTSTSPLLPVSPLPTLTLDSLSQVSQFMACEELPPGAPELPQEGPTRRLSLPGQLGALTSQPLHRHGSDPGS", "assay": "primary screen, population patch clamp on CHO cells stably expressing hERG", "units": {"hERG current change (%, negative = inhibition) at 10uM": "%"}, "values": [
      {"smiles": "COC(=O)CN(c1cccc(F)c1)S(C)(=O)=O", "hERG current change (%, negative = inhibition) at 10uM": -11.3},
      {"smiles": "CC1(C)Cc2ccccc2C(NNC(=O)c2ccncc2)=N1", "hERG current change (%, negative = inhibition) at 10uM": 18.5},
      {"smiles": "COc1cccc(NC(=S)NNC(=O)CCn2cc([N+](=O)[O-])cn2)c1", "hERG current change (%, negative = inhibition) at 10uM": -2.61},
      {"smiles": "COC(=O)c1cc2sccc2n1Cc1nc(-c2ccc(OC)cc2)oc1C", "hERG current change (%, negative = inhibition) at 10uM": -6.52},
      {"smiles": "COc1ccc(C)cc1N(CC(=O)NCCSCc1cccc(Cl)c1)S(C)(=O)=O", "hERG current change (%, negative = inhibition) at 10uM": -10.7},
      {"smiles": "COC(=O)c1sccc1NC(=O)Cn1nnc(-c2ccc(C)cc2)n1", "hERG current change (%, negative = inhibition) at 10uM": 0.599},
      {"smiles": "CCOc1cc(C(=O)NC(=S)Nc2cccnc2)cc(OCC)c1OCC", "hERG current change (%, negative = inhibition) at 10uM": -36.4},
      {"smiles": "CCOc1ccc(CCNC(=O)C2CCCN(S(=O)(=O)N3CCOCC3)C2)cc1OCC", "note": "(stereo not shown)", "hERG current change (%, negative = inhibition) at 10uM": 0.332},
      {"smiles": "Cc1ccc(NC(=O)C(C)N2C(=O)c3ccccc3S2(=O)=O)cc1Cl", "note": "(stereo not shown)", "hERG current change (%, negative = inhibition) at 10uM": 13.8},
      {"smiles": "O=C(O)Cn1cc(C(=O)c2cccs2)c2ccccc21", "hERG current change (%, negative = inhibition) at 10uM": 8.08},
      {"smiles": "CNC[C@H](CC1CCCCC1)NC[C@H](CO)NCCc1cccc(C(F)(F)F)c1", "hERG current change (%, negative = inhibition) at 10uM": -13.5},
      {"smiles": "C/C(CC1CC(C)(C)OC1=O)=N/Nc1nc(-c2ccccc2)cs1", "note": "(stereo not shown)", "hERG current change (%, negative = inhibition) at 10uM": -0.0742},
      {"smiles": "COC(=O)c1ccc(NC(=O)COC(=O)COc2cccc3c2OC(C)(C)C3)cc1", "hERG current change (%, negative = inhibition) at 10uM": 7.85},
      {"smiles": "CC(=O)c1cc(CN2CCC(C(=O)Nc3ccc(-n4nc(C)cc4C)cc3)CC2)cs1", "hERG current change (%, negative = inhibition) at 10uM": -15.7},
      {"smiles": "CC(=O)N1Cc2cc(N)ccc2Oc2ccccc21", "hERG current change (%, negative = inhibition) at 10uM": 9.9},
      {"smiles": "COc1cccc(N2CCN(C(=O)c3ccc(CS(=O)c4ccccc4C)o3)CC2)c1", "note": "(stereo not shown)", "hERG current change (%, negative = inhibition) at 10uM": -4.71},
      {"smiles": "Cc1nn(-c2ccccc2)c2sc(C(=O)n3cccn3)cc12", "hERG current change (%, negative = inhibition) at 10uM": 1.81},
      {"smiles": "COc1ccccc1OCCC(=O)OCC(=O)NC(C)c1ccccc1", "note": "(stereo not shown)", "hERG current change (%, negative = inhibition) at 10uM": 4.92},
      {"smiles": "N#CCC(=O)N1CC2(CC(c3cccc(NC(=O)COc4ccc(Cl)cc4)c3)=NO2)C[C@@H]1C(N)=O", "note": "(stereo partly shown)", "hERG current change (%, negative = inhibition) at 10uM": -2.55},
      {"smiles": "O=C(CCSc1ccccc1)NC(=O)COC(=O)c1ccc(OC(F)F)cc1", "hERG current change (%, negative = inhibition) at 10uM": 2.09},
      {"smiles": "Cn1nc(C(=O)NCc2ccco2)c2ccccc2c1=O", "hERG current change (%, negative = inhibition) at 10uM": 5.4},
      {"smiles": "Cc1ccc(NC(=S)NCc2ccc(F)cc2)c(C)c1", "hERG current change (%, negative = inhibition) at 10uM": -2.46},
      {"smiles": "CC(=O)c1cccc(NC(=S)N2CCN(S(=O)(=O)c3ccc(F)cc3)CC2)c1", "hERG current change (%, negative = inhibition) at 10uM": -2.13},
      {"smiles": "O=C(NCc1ccccn1)C(=O)Nc1nc(-c2ccccc2)cs1", "hERG current change (%, negative = inhibition) at 10uM": 10.3},
      {"smiles": "CC(C)c1onc(C(=O)NCc2ccc(Cl)cc2)c1[N+](=O)[O-]", "hERG current change (%, negative = inhibition) at 10uM": 11},
      {"smiles": "Cc1ccccc1-c1nnc(NC(=O)CSc2nc3ccccc3s2)s1", "hERG current change (%, negative = inhibition) at 10uM": 6.88},
      {"smiles": "O=C(Nc1ccccc1C(=O)N/N=C/c1ccc(O)cc1)c1ccccc1", "hERG current change (%, negative = inhibition) at 10uM": 6.19},
      {"smiles": "COc1ccc(NC(=O)Nc2cc(C)ccc2F)cc1", "hERG current change (%, negative = inhibition) at 10uM": 0.822},
      {"smiles": "COCCCNC(=O)CCn1c(=O)c2ccccc2n(CC(=O)NCCc2ccc(OC)c(OC)c2)c1=O", "hERG current change (%, negative = inhibition) at 10uM": -0.597},
      {"smiles": "Cc1ccc(-c2nc(SCC(N)=O)c(C#N)c3c2CCCC3)cc1", "hERG current change (%, negative = inhibition) at 10uM": -4.07},
      {"smiles": "COC(=O)c1cc(Cl)nc2ccccc12", "hERG current change (%, negative = inhibition) at 10uM": -7.89},
      {"smiles": "COc1ccc(N2C(=O)C3CCCN3C2c2cccc(C)c2)cc1Cl", "note": "(stereo not shown)", "hERG current change (%, negative = inhibition) at 10uM": -31.3},
      {"smiles": "CC(C)C[C@@H](CSc1ccc(Br)cc1)N1CCN(CCc2ccccc2)CCC1=O", "hERG current change (%, negative = inhibition) at 10uM": -70.6},
      {"smiles": "Cc1nn(-c2ccccc2)c(Cl)c1C(=O)NCC(C)c1ccccc1", "note": "(stereo not shown)", "hERG current change (%, negative = inhibition) at 10uM": -26.1},
      {"smiles": "c1ccc(-c2ccc(C3=Nn4c(Cn5nnc6ccccc65)nnc4SC3)cc2)cc1", "hERG current change (%, negative = inhibition) at 10uM": 15.2},
      {"smiles": "CCOC(=O)[C@]1(C#N)[C@@H]2C=CC(C(N)=O)=CN2[C@@H](C(N)=O)[C@@H]1c1ccc(F)cc1", "hERG current change (%, negative = inhibition) at 10uM": 5.67},
      {"smiles": "COc1ccc(N(CC(=O)NC2CCCC2)C(=O)CCC(=O)Nc2cc(C)on2)cc1OC", "hERG current change (%, negative = inhibition) at 10uM": -6.45},
      {"smiles": "CCn1nc2cc(C(=O)NCCc3cccs3)ccc2c1OC", "hERG current change (%, negative = inhibition) at 10uM": -12.5},
      {"smiles": "CO/N=C\\CC(=O)Nc1ccc(Cl)c(Cl)c1", "hERG current change (%, negative = inhibition) at 10uM": 19.6},
      {"smiles": "COc1ccc(CCNC(=O)c2ccccc2NC(=O)c2ccco2)cc1OC", "hERG current change (%, negative = inhibition) at 10uM": -24},
      {"smiles": "COc1ccc(/C(N)=N/OC(=O)Cc2ccccc2OC)cc1", "hERG current change (%, negative = inhibition) at 10uM": -8.85},
      {"smiles": "COc1ccc(NC(=O)C2CCN(S(=O)(=O)c3ccc4c(c3)CC(C)N4C(C)=O)CC2)cc1OC", "note": "(stereo not shown)", "hERG current change (%, negative = inhibition) at 10uM": 20},
      {"smiles": "CCCCNC(=O)C(Sc1ccccc1)c1ccccc1", "note": "(stereo not shown)", "hERG current change (%, negative = inhibition) at 10uM": 0.0978}
    ]}
  ]
}
